{"source": "paper PMC4336329", "about": "(PLoS ONE, 2015)", "note": "Out of some 310,000 compounds screened, about 14,000 (4.5%) showed an effect of 50% or more. The effect is printed as a negative number. This is one part of the list.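 Further: peak tail current of the secondary pulse compared with the same well before compound.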"}
{"target": "human ether-à-go-go-related gene (hERG) potassium channel (human, UniProt Q12809)", "sequence (Q12809 whole entry, looked up)": "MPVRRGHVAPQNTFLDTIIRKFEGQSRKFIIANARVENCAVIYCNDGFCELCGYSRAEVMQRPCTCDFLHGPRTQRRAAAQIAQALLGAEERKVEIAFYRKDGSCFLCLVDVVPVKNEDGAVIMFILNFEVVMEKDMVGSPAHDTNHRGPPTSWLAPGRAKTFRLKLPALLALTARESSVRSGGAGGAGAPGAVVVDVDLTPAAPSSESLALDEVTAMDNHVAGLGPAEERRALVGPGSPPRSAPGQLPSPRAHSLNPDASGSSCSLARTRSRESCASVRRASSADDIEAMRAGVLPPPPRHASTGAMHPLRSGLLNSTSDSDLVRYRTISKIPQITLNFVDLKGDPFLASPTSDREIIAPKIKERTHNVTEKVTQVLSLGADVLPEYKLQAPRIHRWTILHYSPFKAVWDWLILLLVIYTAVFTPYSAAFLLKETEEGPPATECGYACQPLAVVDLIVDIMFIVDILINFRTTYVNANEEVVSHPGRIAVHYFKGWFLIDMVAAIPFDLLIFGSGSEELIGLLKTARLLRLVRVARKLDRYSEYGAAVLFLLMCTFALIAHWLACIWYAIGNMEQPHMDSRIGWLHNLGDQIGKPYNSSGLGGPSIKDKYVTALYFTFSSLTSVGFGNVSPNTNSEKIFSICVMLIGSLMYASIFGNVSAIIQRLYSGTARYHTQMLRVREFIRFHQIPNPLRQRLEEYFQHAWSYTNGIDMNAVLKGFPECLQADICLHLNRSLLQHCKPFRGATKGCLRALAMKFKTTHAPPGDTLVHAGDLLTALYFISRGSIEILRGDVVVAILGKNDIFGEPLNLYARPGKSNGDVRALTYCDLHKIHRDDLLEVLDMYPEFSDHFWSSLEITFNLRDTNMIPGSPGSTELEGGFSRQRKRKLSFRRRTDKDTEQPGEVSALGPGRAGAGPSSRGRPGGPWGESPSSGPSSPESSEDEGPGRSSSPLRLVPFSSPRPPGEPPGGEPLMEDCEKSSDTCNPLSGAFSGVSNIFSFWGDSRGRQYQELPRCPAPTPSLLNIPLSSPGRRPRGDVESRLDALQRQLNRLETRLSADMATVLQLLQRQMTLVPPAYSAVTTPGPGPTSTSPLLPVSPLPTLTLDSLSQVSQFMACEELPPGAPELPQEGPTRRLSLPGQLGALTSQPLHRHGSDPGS", "assay": "primary screen, population patch clamp on CHO cells stably expressing hERG", "units": {"hERG current change (%, negative = inhibition) at 10uM": "%"}}
{"smiles": "CC(=O)Nc1ccc(C(=O)OCC(=O)c2ccc(C)c([N+](=O)[O-])c2)cc1", "hERG current change (%, negative = inhibition) at 10uM": 5.24}
{"smiles": "Cc1nc2cc(NC(=O)NCc3ccco3)ccc2o1", "hERG current change (%, negative = inhibition) at 10uM": 9.7}
{"smiles": "Cc1ccc(C)c(NC(=O)CN(C)C(=O)c2ccc(-c3ccc(Cl)cc3)o2)c1", "hERG current change (%, negative = inhibition) at 10uM": 1.22}
{"smiles": "CCc1ccccc1Nc1ncnc2ccccc12.Cl", "hERG current change (%, negative = inhibition) at 10uM": 6.03}
{"smiles": "CCN(CC)S(=O)(=O)c1cccc(NC(=O)Nc2cccc(C(F)(F)F)c2)c1", "hERG current change (%, negative = inhibition) at 10uM": -13.3}
{"smiles": "COc1ccc(-n2c(COc3ccc(C)cc3)nnc2SCC(N)=O)cc1", "hERG current change (%, negative = inhibition) at 10uM": -5.01}
{"smiles": "O=C(O)c1ccc(-n2nnnc2SCc2ccccc2Br)cc1", "hERG current change (%, negative = inhibition) at 10uM": 8.43}
{"smiles": "CCOC(=O)C1CCCN(C(=O)c2cc(S(=O)(=O)N3CCCCC3)c[nH]2)C1", "note": "(stereo not shown)", "hERG current change (%, negative = inhibition) at 10uM": 14.5}
{"smiles": "CCOc1cc(C(C(=O)NCC2CCCO2)N(C(=O)Cn2nnc3ccccc32)c2ccc(C(C)=O)cc2)ccc1O", "note": "(stereo not shown)", "hERG current change (%, negative = inhibition) at 10uM": 14.5}
{"smiles": "CCC(CC)C(=O)N1CCN(Cc2nc3ccccc3c(=O)[nH]2)CC1", "hERG current change (%, negative = inhibition) at 10uM": -11.3}
{"smiles": "CC(CCc1ccccc1)NC(=O)c1ccc(NC(=O)c2ccccc2)cc1", "note": "(stereo not shown)", "hERG current change (%, negative = inhibition) at 10uM": 10.5}
{"smiles": "COc1cccc2c1OC[C@@H](CO)[C@H]2N(C)C(=O)Nc1ccc(Cl)cc1Cl", "hERG current change (%, negative = inhibition) at 10uM": -48.1}
{"smiles": "O=C(NCc1ccccc1Cl)c1cc([N+](=O)[O-])ccc1Cl", "hERG current change (%, negative = inhibition) at 10uM": 1.47}
{"smiles": "O=C(NCc1ccccc1Cl)c1ccc(-c2ccccc2)cc1", "hERG current change (%, negative = inhibition) at 10uM": 1.37}
{"smiles": "CCC(C)[C@H](NC(=O)N1c2ccccc2NC(=O)[C@@H]1C(C)C)C(=O)N[C@@H](Cc1ccccc1)C(=O)O", "note": "(stereo partly shown)", "hERG current change (%, negative = inhibition) at 10uM": 6.95}
{"smiles": "O=S(=O)(c1ccccc1)c1nnn2c1nc(NC1CCN(Cc3ccccc3)CC1)c1cc(Cl)ccc12", "hERG current change (%, negative = inhibition) at 10uM": -19.1}
{"smiles": "Cc1cc(NN)nc(NS(=O)(=O)c2ccccc2)n1", "hERG current change (%, negative = inhibition) at 10uM": 25.7}
{"smiles": "Cc1cccc(C)c1NC(=S)/N=C/N(C)C", "hERG current change (%, negative = inhibition) at 10uM": 23.1}
{"smiles": "Cc1cc(C(=O)CN2CCN(CC(=O)Nc3cccc(F)c3)CC2)c(C)n1C1CC1", "hERG current change (%, negative = inhibition) at 10uM": -56.2}
{"smiles": "CC(=O)N1N=C(c2ccc(Br)cc2)OC12CCCC2", "hERG current change (%, negative = inhibition) at 10uM": 9.81}
{"smiles": "O=C(CCC(=O)N1C[C@H]2C[C@@H](C1)c1cccc(=O)n1C2)NCc1ccccc1C(F)(F)F", "hERG current change (%, negative = inhibition) at 10uM": 5.54}
{"smiles": "CCn1cnc2scc(-c3ccccc3)c2c1=O", "hERG current change (%, negative = inhibition) at 10uM": -11.5}
{"smiles": "Cc1onc(-c2c(Cl)cccc2Cl)c1NC(=O)NN(C)c1ccc([N+](=O)[O-])cn1", "hERG current change (%, negative = inhibition) at 10uM": 11.8}
{"smiles": "COc1ccc(CCNC(=O)c2cc(-c3cc(C)ccc3O)n[nH]2)cc1OC", "hERG current change (%, negative = inhibition) at 10uM": 12.2}
{"smiles": "CCN(CC)C(=O)C1CCCN(Cc2ccc(OC)c(C)c2)C1", "note": "(stereo not shown)", "hERG current change (%, negative = inhibition) at 10uM": -10.7}
{"smiles": "O=c1c(C(c2ccc(F)cc2)c2c(O)nc3n(c2=O)CCS3)c(O)nc2n1CCS2", "hERG current change (%, negative = inhibition) at 10uM": 13.5}
{"smiles": "NC(=O)Cn1nc(-c2ccccc2)nc1-c1ccccc1", "hERG current change (%, negative = inhibition) at 10uM": 6.3}
{"smiles": "Cc1ccc(CNC(=O)C(C)C2Sc3ccccc3NC2=O)cc1", "note": "(stereo not shown)", "hERG current change (%, negative = inhibition) at 10uM": -6.3}
{"smiles": "COc1ccc(C(=O)N/N=C(\\C)CC(=O)Nc2ccc3c(c2)OCO3)cc1", "hERG current change (%, negative = inhibition) at 10uM": -37.1}
{"smiles": "COc1cc2c(cc1OC)C1=CC(=O)C(=O)N1C(C)(C)C2", "hERG current change (%, negative = inhibition) at 10uM": 10.6}
{"smiles": "Cc1cc(OCC(=O)NCc2cccnc2)c2c(C)cc(=O)oc2c1", "hERG current change (%, negative = inhibition) at 10uM": -27.9}
{"smiles": "Cc1ccccc1CO/N=C/c1[nH]ncc1Br", "hERG current change (%, negative = inhibition) at 10uM": -5.13}
{"smiles": "CC(c1ccccc1)C1CC(=O)N(Cc2ccccc2)C1=O", "note": "(stereo not shown)", "hERG current change (%, negative = inhibition) at 10uM": -10.8}
{"smiles": "CCOC(=O)c1c(C=O)c(C)n(Cc2ccc(C)cc2)c1C", "hERG current change (%, negative = inhibition) at 10uM": -21.5}
{"smiles": "O=C(CC12CC3CC(CC(C3)C1)C2)NC(=S)Nc1ccc(CN2CCOCC2)cc1", "hERG current change (%, negative = inhibition) at 10uM": 12.4}
{"smiles": "COc1ccc(-c2cn3nc(SCC(=O)NC4CCCCC4)ccc3n2)cc1", "hERG current change (%, negative = inhibition) at 10uM": 22.6}
{"smiles": "COCc1cc(CN(C)C(=O)C2CCC(=O)N(Cc3cccc(OC)c3)C2)[nH]n1", "note": "(stereo not shown)", "hERG current change (%, negative = inhibition) at 10uM": 16.7}
{"smiles": "CCOC(=O)c1c(C)[nH]c(C(=O)OCC(=O)Nc2cc(C)nn2-c2ccccc2)c1C", "hERG current change (%, negative = inhibition) at 10uM": -2.69}
{"smiles": "COc1ncccc1C(=O)N1CCCC(N2CCN(c3ccc(F)cc3)CC2)C1", "note": "(stereo not shown)", "hERG current change (%, negative = inhibition) at 10uM": -26.7}
{"smiles": "COC(=O)C1CSC(C(=O)OC)N1C(=O)Nc1ccc(Cl)c(Cl)c1", "note": "(stereo not shown)", "hERG current change (%, negative = inhibition) at 10uM": -3.16}
{"smiles": "N#CCSc1nc2c(cc1C#N)CCCCCC2", "hERG current change (%, negative = inhibition) at 10uM": 1.89}
{"smiles": "Cc1cc(=O)oc(C)c1C(=O)NC1CC(C)(C)NC(C)(C)C1", "hERG current change (%, negative = inhibition) at 10uM": 13.2}
{"smiles": "COc1ccc(OCCCC(=O)OCC(=O)Nc2ccc(Cl)cn2)cc1", "hERG current change (%, negative = inhibition) at 10uM": 3.42}
{"smiles": "Cn1c(/C(C#N)=C/c2cccc(O)c2)nc2ccccc21", "hERG current change (%, negative = inhibition) at 10uM": 0.375}
{"smiles": "COc1c(Cl)cc(-c2noc(C)c2C(=O)NC(C)C)cc1Cl", "hERG current change (%, negative = inhibition) at 10uM": 4.84}
{"smiles": "Cc1cc(C)c(C(=O)NC2CCCc3c2cnn3-c2cccc(C)c2C)o1", "note": "(stereo not shown)", "hERG current change (%, negative = inhibition) at 10uM": -7.96}
{"smiles": "COC1CCCCC1Nc1cccc(SC)c1", "note": "(stereo not shown)", "hERG current change (%, negative = inhibition) at 10uM": 1.68}
{"smiles": "Cc1ccc(NC(=O)C(=O)NCC2CCCN2S(=O)(=O)c2cccs2)cc1", "note": "(stereo not shown)", "hERG current change (%, negative = inhibition) at 10uM": -25}
{"smiles": "O=C1NC(=O)N(c2ccc3c(c2)OCO3)C(=O)/C1=C/c1ccc(N2CCCC2)o1", "hERG current change (%, negative = inhibition) at 10uM": 9.27}
{"smiles": "CCCCOc1ccc(CNC(=O)NS(=O)(=O)c2ccc(OCC(C)C)cc2)cc1", "hERG current change (%, negative = inhibition) at 10uM": -16.9}
{"smiles": "COc1cc(C(=O)N/N=C(\\Cc2ncc[nH]2)c2ccccc2)cc(OC)c1OC", "hERG current change (%, negative = inhibition) at 10uM": 6.99}
{"smiles": "COC(=O)[C@@H](Cc1ccccc1)NC(=O)[C@H]1CCC(=O)N1C(=O)OCc1ccccc1", "hERG current change (%, negative = inhibition) at 10uM": 1.18}
{"smiles": "COc1ccc(C(=O)CSc2nnc(-c3ccc(S(=O)(=O)N4CCOCC4)cc3)o2)cc1", "hERG current change (%, negative = inhibition) at 10uM": 7.62}
{"smiles": "Cc1ccccc1CN1CCN(C(=O)c2ccco2)CC1.O=C(O)C(=O)O", "hERG current change (%, negative = inhibition) at 10uM": 7.41}
{"smiles": "COc1ccc2c(c1OC)C(=O)N1c3ccccc3C(=O)N(c3ccccc3)C21", "note": "(stereo not shown)", "hERG current change (%, negative = inhibition) at 10uM": -6.13}
